About 1,700 (3.3%) of roughly 52,000 compounds were called active. Rule as the data show it: active = survival mostly below about 52% (no sharp cut-off); inactive = mostly above about 56%. This is one part of the list.
Tested on: Wild type
Assay: S. aureus survival, RN4220 and DeltatarO strains – OD600, teichoic acid synthesis inhibitors, primary screen (AID 463173)
Conditions: S. aureus RN4220 wild type/DeltatarO growth, OD600, 18 h, active compounds read low, screened at 18.75 µg/mL (by protocol)

| Structure (SMILES) | survival |
| --- | --- |
| Cc1cc2c(cc1S(=O)(=O)CCC(=O)NCCc1ccccc1)OCC(=O)N2 | inactive: 83% |
| CCC1CN(C(=O)Nc2ccc(C)c(F)c2)c2ccccc2S1 (stereo unspecified) | inactive: 140% |
| Cc1ccc(NC(=O)CN2CCSc3ccc(S(=O)(=O)N4CCCC4)cc32)cc1C | inactive: 53% |
| O=C1CN(C(=O)c2ccc(S(=O)(=O)N3CCCC3)cc2)C(c2ccccc2)c2cc(Br)ccc2N1 (stereo unspecified) | inactive: 90% |
| CCOc1ccc(-c2nnc(SCC(=O)NCc3ccccc3)o2)cc1 | inactive: 112% |
| COc1cc(OC)c(NS(=O)(=O)c2cc(-c3cnc(C4CC4)o3)ccc2C)cc1Cl | inactive: 66% |
| Cc1nnc(N2CCC(C(=O)NCCc3ccccc3)CC2)c2nn(-c3ccc(Cl)cc3)c(C)c12 | inactive: 102% |
| CCOc1ccc(-n2nc3cc(C)c(NC(=O)c4cc(OCC)c(OCC)c(OCC)c4)cc3n2)cc1 | inactive: 134% |
| CC(C)(C)C(=O)NC1(C(F)(F)F)C(=O)Nc2c1c(=O)[nH]c(=O)n2-c1ccccc1 (stereo unspecified) | inactive: 70% |
| CCn1c(C(=O)N2CCCC(C(=O)N3CCN(c4cc(C)ccc4C)CC3)C2)cc2sccc21 (stereo unspecified) | inactive: 32% |
| CC(C)(C)C(=O)C1=C(O)C(=O)N(c2ccccc2)C1c1ccccc1 (stereo unspecified) | inactive: 102% |
| CCN(CC)c1ccc(NC(=O)c2sc3nc4c(cc3c2N)CN(C)CC4)cc1 | inactive: 167% |
| Cc1nncn1-c1ccc(C(=O)Nc2cc(F)ccc2F)cc1 | inactive: 71% |
| Cc1ccc(CCNC(=O)CCS(=O)(=O)c2cc3c(cc2C)NC(=O)CO3)cc1 | inactive: 88% |
| COc1cc(OC)c(OC)cc1CNc1sc2c(c1C(=O)Nc1ccccc1OC)CCC2 | inactive: 132% |
| O=C(Nc1ccc2nc(SCC(=O)N3CCc4ccccc43)sc2c1)c1cccc(Cl)c1 | inactive: 112% |
| CN(C(=O)CCS(=O)(=O)c1cc2c(cc1Cl)NC(=O)CO2)C1CCCCC1 | inactive: 83% |
| CCOc1cc(NC(=O)C2CC2)c(OCC)cc1NC(=O)CCn1nnc2ccccc21 | inactive: 112% |
| CCn1c(=N)c(C(=O)NC2CCCCC2)cc2c(=O)n3cc(C)ccc3nc21 | inactive: 70% |

| Structure (SMILES) | survival |
| --- | --- |
| COc1ccc(C)cc1NS(=O)(=O)c1cc2c3c(c1)CC(=O)N3CCC2 | inactive: 79% |
| COc1ccc(NC(=O)CSc2nc3nc(C)c(Cc4ccccc4Cl)c(C)n3n2)cc1OC | inactive: 66% |
| COc1ccc(Cl)cc1NC(=O)CCCN1C(=O)C(c2ccccc2)Oc2cccnc21 (stereo unspecified) | inactive: 104% |
| COc1cc2c(cc1OC)C(COc1cc(C)cc(C)c1)N(C(=O)COc1ccccc1)CC2 (stereo unspecified) | inactive: 81% |
| COc1ccc(-n2c(=O)c3ccccc3n(CC(=O)NCCc3ccc(OC)c(OC)c3)c2=O)cc1 | inactive: 104% |
| CC(C)NC(=O)CSc1nc(-c2ccco2)cc(C(F)(F)F)n1 | inactive: 100% |
| Cc1ccccc1CCNC(=O)c1cc2cc(S(=O)(=O)N3CCCCC3)ccc2n1C | active: -3% |
| COc1ccc(-n2ncc(C(=O)Nc3cccc(C(F)(F)F)c3)c2C2CCN(C(=O)OC(C)(C)C)CC2)cc1 | inactive: 55% |
| CCOCCCN(Cc1ccco1)S(=O)(=O)c1cc2c(cc1C)NC(=O)CO2 | inactive: 75% |
| COc1ccc(N2Cc3cccc(C(=O)Nc4ccc(F)cc4)c3C2=O)cc1 | inactive: 128% |
| Cc1ccc(C2=Nc3ccccc3N(CC(=O)NCc3ccccc3Cl)C(=O)C2)cc1C | inactive: 84% |
| O=C(Nc1c(C(=O)N2CCN(c3ccccc3)CC2)oc2ccccc12)c1ccco1 | active: 10% |
| Cc1ccccc1CN1c2ccccc2-c2nc(SCC(=O)NCc3ccccc3)ncc2S1(=O)=O | active: -3% |
| Cc1c(C(=O)NCCc2ccc(Cl)cc2)sc2nc3n(c(=O)c12)CCCC3 | inactive: 78% |
| CC(C)C(=O)NCC(c1ccc2c(c1)OCO2)N1CCN(c2ccccc2)CC1 (stereo unspecified) | inactive: 95% |
| Cc1ccc2nc(CNC(=O)c3ccccc3)[nH]c2c1 | inactive: 99% |
| CNc1nc2ccccc2o1 | inactive: 102% |
| Cc1cccn2c(=O)c(C(=O)NCCc3ccccc3)c(O)nc12 | inactive: 70% |
| CCOc1ccc(N2C(=O)CC(NCCNC(=O)c3ccc(Cl)cc3)C2=O)cc1 (stereo unspecified) | inactive: 109% |

| Structure (SMILES) | survival |
| --- | --- |
| COc1ccc(CCNC(=O)C(=O)NCC(c2ccc3c(c2)OCO3)N2CCOCC2)cc1OC (stereo unspecified) | inactive: 73% |
| Cc1cccc(-c2noc(CSc3nc(-c4ccc(F)cc4)cc(=O)[nH]3)n2)c1 | inactive: 82% |
| C=CCNC(=O)c1ccc(CN2CCOCC2)cc1 | inactive: 105% |
| CCOc1ccc(NC(=O)c2oc3ccccc3c2NC(=O)c2c(F)cccc2F)cc1 | inactive: 110% |
| COc1cccc(-n2ccn(CC(=O)c3ccc(F)cc3)c(=O)c2=O)c1 | inactive: 86% |
| COc1ccccc1N1CCN(C(=O)CSc2nc3ccccc3nc2Cc2ccccc2)CC1 | inactive: 75% |
| CCOc1ccc(NC(=O)C2CCCN(S(=O)(=O)c3ccc4[nH]c(=O)ccc4c3)C2)cc1 (stereo unspecified) | inactive: 102% |
| Cc1ccc(NC(=O)C(=O)c2cc(C)n(-c3ccc(F)cc3)c2C)cc1C | inactive: 89% |
| COc1ccc(CNC(=O)c2cc(Nc3ccc(C)cc3C)nc3ccccc23)cc1 | inactive: 91% |
| CCCN(CCC)S(=O)(=O)c1ccc2c(c1)N(CC(=O)NC(C)c1ccccc1)C(=O)CS2 (stereo unspecified) | inactive: 93% |
| Cc1ccc(CSC2=Nc3ccccc3C3=NC(CC(=O)NC4CCCCC4)C(=O)N23)cc1 (stereo unspecified) | inactive: 83% |
| COc1ccccc1N1CCN(C(=O)c2cc(-c3ccc(F)cc3)on2)CC1 | inactive: 73% |
| Cc1ccc(S(=O)(=O)Nc2ccc(N=NN3CCCCC3)cc2)cc1 | inactive: 89% |
| Cc1ccc2nc(-c3ccc(NC(=O)COc4ccccc4)cc3)sc2c1 | inactive: 66% |
| CCN(c1cccc(C)c1)S(=O)(=O)c1nnc(NC(=O)c2ccccc2Cl)s1 | inactive: 24% |
| CC(=O)c1ccc(N2C(=O)N(CC(=O)c3ccc(C)cc3)c3ccccc3S2(=O)=O)cc1 | inactive: 89% |
| COc1cc(NC(=O)Cc2c(C(=O)O)c(C)cn2C)cc(OC)c1 | inactive: 99% |
| CCOc1ccc(C2C(=O)N(C3CCCCC3)CC(=O)N2C2CCCC2)cc1OC (stereo unspecified) | inactive: 82% |

— PubChem BioAssay AID463173 (ICCB-Longwood Screening Facility, Harvard Medical School, 2010)
